The supplement of paper PMC3334620
In all, about 33,000 sequences were measured (“E-score (-0.5 to 0.5)”: median about -0.054, highest 2% from about 0.39 on). Some of the results follow.

Target: Ylr278c (UniProt Q05854)
Experiment: PBM E-score (8-mer binding enrichment) (E-score (-0.5 to 0.5)); higher = stronger / more preferred TF binding; most listed sequences are background and not binding sites
Settings: protein concentration: 200 nM; construct: GST-DNA-binding domain
Protocol: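 Universal 'all 10-mer' protein binding microarrays (Agilent AMADID 015681) probed with GST-tagged S. cerevisiae TFs (full-length or DBD) made by in vitro transcription/translation (PURExpress), about 100-200 nM. Bound TF was detected with fluorescent anti-GST. Each ungapped 8-mer (which stands for itself and its reverse complement) is scored by the PBM enrichment score (E-score), a modified Wilcoxon-Mann-Whitney statistic from -0.5 to +0.5, computed with the Universal PBM Analysis Suite. Scale: above 0.35 generally sequence-specific binding.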

Row | Sequence | PBM E-score
1 | GTGGCTTA | -0.256
2 | CGGTAGGC | 0.121
3 | CGTAGCAA | -0.109
4 | AGGGGAGA | -0.135
5 | AGTGTACA | -0.268
6 | TTTTAAAA | 0.03
7 | GCATCACC | -0.0755
8 | TTCCTAAA | -0.238
9 | GGTGACAA | -0.00085
10 | AGAAGTCC | 0.26
11 | CTGAACGC | -0.0116
12 | CAATACGC | 0.0615
13 | CCGGCCGG | 0.461
14 | AGGTGAGG | -0.14
15 | CCCGGCAA | 0.303
16 | GCCCTGCC | -0.036
17 | GCTTGCCA | -0.137
18 | AGCGCGCT | 0.0204
19 | TCGGCGAA | 0.372
20 | AGGTATTA | -0.0551
21 | ACTACTAG | -0.0129
22 | CATAATCG | 0.168
23 | ATTAAGTC | -0.0973
24 | CTACCGCA | -0.0439
25 | AAGAGGTG | 0.0441

Row | Sequence | PBM E-score
26 | ACTCTAAA | -0.0315
27 | CTGAAGTC | -0.0671
28 | GCATACAA | -0.0576
29 | AACGGGAA | 0.257
30 | ACGTGTAG | -0.151
31 | ACCACGTG | -0.149
32 | GCATCCCC | 0.142
33 | GGACTCTA | 0.0449
34 | ACGGCGAG | 0.0331
35 | ATATCGGG | 0.313
36 | AATGAAGT | -0.0763
37 | TCAAATGA | -0.0127
38 | GAATAAAA | 0.0963
39 | CGTCGGTA | 0.0934
40 | AGTCACCC | -0.187
41 | TCCTAAGA | -0.128
42 | GTTGTAAA | -0.165
43 | ATATGATG | -0.127
44 | AGGGCAGC | -0.242
45 | AAACATGG | -0.111
46 | ATGCACAA | -0.207
47 | ACCAGCGC | -0.167
48 | GCTTGATA | -0.166
49 | TGTGATAA | -0.241
50 | AAGTGCAA | -0.227

Row | Sequence | PBM E-score
51 | TGATTCAA | -0.0652
52 | CACATGGA | -0.226
53 | TCGCCCAA | -0.145
54 | ATGAATAC | -0.083
55 | CAACCGGG | 0.215
56 | ACAATCGA | -0.178
57 | ACGCGCGG | 0.349
58 | CTCATAGA | -0.278
59 | TATACTGA | 0.00579
60 | ACAAAGTG | -0.113
61 | ATGAGGAC | -0.0691
62 | GCCATCGC | -0.0776
63 | AGATAATG | -0.105
64 | CGTTTGCC | 0.16
65 | ATTATTAA | 0.115
66 | CACGCCGG | 0.347
67 | TGAAAAAA | 0.0278
68 | AAAAGGTT | -0.11
69 | ATTCATCC | -0.0901
70 | AGATAGTC | -0.193
71 | CCCTGAGG | -0.306
72 | CCATAATA | 0.00429
73 | CAGTGATC | -0.0716
74 | TCTAGAGA | -0.353
75 | CGTATTAG | -0.0233

Row | Sequence | PBM E-score
76 | GAATTACA | 0.0441
77 | GCGGGAAA | 0.282
78 | ATGTCGGA | 0.397
79 | GGCTGAAA | 0.0155
80 | CTCTCGCC | -0.171
81 | AGATCGAA | -0.00764
82 | CGTGACCC | 0.102
83 | AGTGGCCG | 0.182
84 | CCCATCGC | 0.146
85 | GTTTCTTA | -0.209
86 | ACGGTTAT | 0.0186
87 | CAATGAGA | -0.186
88 | ACCGTCCT | -0.111
89 | AAATTGGA | 0.0275
90 | ACCAGGTA | -0.0412
91 | AACGATTG | -0.0873
92 | AGGTAGTG | -0.0634
93 | CCTTGGAG | -0.107
94 | CGGAGGGA | 0.368
95 | GAGAAACA | 0.0561
96 | GAGTGTGA | -0.22
97 | CGGCCAAC | 0.181
98 | ATCCCTAA | -0.254
99 | GCAGCGGC | 0.109
100 | AAAGCCGC | 0.294

Row | Sequence | PBM E-score
101 | CACACGTA | -0.319
102 | CCGTTGCG | 0.233
103 | CAAGAACA | -0.199
104 | ATCTCCGC | 0.47
105 | GGTATGTA | -0.0721
106 | CCACTTGC | -0.0175
107 | ACCCATCT | -0.0789
108 | ACGAGGGA | -0.0806
109 | CGCAAAGC | 0.18
110 | CTCCGAAA | 0.477
111 | GAGATGGA | -0.0596
112 | AAATGAAA | 0.0857
113 | AGGCTTAA | -0.00203
114 | CGTCGGAA | 0.43
115 | CGACTCGA | -0.0765
116 | GACTGTGA | -0.0336
117 | AGCCCATA | -0.0841
118 | CTAGATGC | -0.181
119 | AGGATTCC | -0.00339
120 | GGCCGCCA | 0.0383
121 | CCATCTCC | 0.286
122 | AGCTCTTA | -0.112
123 | AGGAACCT | -0.145
124 | ATGTTATA | -0.197
125 | ATAGGCAA | -0.24

Row | Sequence | PBM E-score
126 | ACTCGCTC | -0.0339
127 | GATTAGGA | 0.0592
128 | CTCAGGAA | -0.0459
129 | AGTTTAAG | -0.19
130 | CTGAGACA | -0.205
131 | TTAAGCAA | -0.0882
132 | CCGCGTTA | 0.226
133 | ATCCAGTG | -0.0472
134 | GCGCTCGA | -0.0716
135 | TAATTCTA | -0.0905
136 | CTCCTGGA | -0.176
137 | GCCGGACA | 0.447
138 | ACGTCGGG | 0.251
139 | AAAATCGT | -0.0996
140 | CAGAGCGC | -0.133
141 | AGATCCAT | 0.0524
142 | GTGCCAAC | -0.126
143 | TAAACTTA | -0.27
144 | ATGGGAGA | -0.309
145 | CTGTTTCA | -0.0702
146 | GGAGAACC | 0.291
147 | AGGCGCGG | 0.137
148 | AGGGTCCC | -0.0195
149 | ATCCCTGA | -0.125
150 | GCGAAGCC | -0.00848

Row | Sequence | PBM E-score
151 | CCGAAAAG | 0.243
152 | CTGTCTCA | -0.124
153 | CAATATCC | 0.26
154 | CCGGCTCC | 0.381
155 | AGGGCCAC | -0.255
156 | AGTGCGGA | 0.394
157 | GTTCGACA | -0.0516
158 | AGCTTTGG | -0.224
159 | AAACAGAT | -0.136
160 | ACGTAATG | -0.123
161 | AATTAAAT | -0.0802
162 | CAGCCGAG | 0.0139
163 | CCATTTCC | 0.208
164 | GCGTTTTA | 0.0444
165 | CACGATAC | -0.121
166 | TCACGCCA | -0.0437
167 | GTCCAAGA | -0.185
168 | AATAATAA | 0.0106
169 | AGACTCCA | -0.192
170 | AAGTACCA | -0.126
171 | TATAGGCA | -0.279
172 | TAGTTGAA | 0.00666
173 | CTCTCAAA | -0.144
174 | AAGCTGGT | -0.15
175 | TGAAGCCA | -0.253

Row | Sequence | PBM E-score
176 | ATAACAGC | -0.124
177 | CCACGTTC | -0.0469
178 | ATTGCTTG | -0.205
179 | GGTAAGGA | -0.195
180 | CGTCCACC | -0.00012
181 | AAAACAAT | 0.00158
182 | CATTGGGC | -0.136
183 | ATCCTTCA | -0.0414
184 | GACTTCAC | -0.0108
185 | GCGAGCGC | 0.108
186 | GCACTCAC | -0.0948
187 | GGCTTAAA | 0.035
188 | AGGGCCCC | -0.123
189 | TGAGCGCA | -0.166
190 | CGCCCAGA | -0.0502
191 | ACCGTTTG | -0.114
192 | AGGGGTCC | -0.0366
193 | CCTGGCGA | -0.131
194 | AAAGTTGC | -0.132
195 | TACCGTCA | 0.0711
196 | TAGCTCAA | -0.216
197 | AGGTCTTG | -0.0124
198 | AAGGGGGA | -0.0957
199 | ATTGTATA | 0.129
200 | TGGCAACA | -0.275

Row | Sequence | PBM E-score
201 | CGGAGGAA | 0.436
202 | AATCCAGT | 0.108
203 | CAACAGGC | -0.109
204 | CCTTAGGA | -0.00492
205 | TATTTCAA | -0.186
206 | AAGGCGGT | -0.121
207 | AGGCTAGG | -0.346
208 | TTGCACAA | -0.157
209 | CGATCATC | -0.0326
210 | AGCATGTG | -0.203
211 | CATGATGA | -0.248
212 | TACGCGAA | -0.0238
213 | CCGCTAAA | 0.216
214 | CCCAGCCC | -0.124
215 | AAGTATCG | 0.0211
216 | GGATCCAA | 0.0511
217 | GGAACGTA | -0.0398
218 | GCATTGCC | 0.0305
219 | CGCGGAAG | 0.316
